SMILES strings stand for the structures. The campaign covered roughly 110,000 compounds. About 230 (0.21%) showed an effect of 50% or more. The list shows a part of the results.
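Further: 30 min substrate incubation versus DMSO and 10 µM JCP410 controls.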

Sequence of DPAP1 (Q8IIJ9 whole entry, looked up): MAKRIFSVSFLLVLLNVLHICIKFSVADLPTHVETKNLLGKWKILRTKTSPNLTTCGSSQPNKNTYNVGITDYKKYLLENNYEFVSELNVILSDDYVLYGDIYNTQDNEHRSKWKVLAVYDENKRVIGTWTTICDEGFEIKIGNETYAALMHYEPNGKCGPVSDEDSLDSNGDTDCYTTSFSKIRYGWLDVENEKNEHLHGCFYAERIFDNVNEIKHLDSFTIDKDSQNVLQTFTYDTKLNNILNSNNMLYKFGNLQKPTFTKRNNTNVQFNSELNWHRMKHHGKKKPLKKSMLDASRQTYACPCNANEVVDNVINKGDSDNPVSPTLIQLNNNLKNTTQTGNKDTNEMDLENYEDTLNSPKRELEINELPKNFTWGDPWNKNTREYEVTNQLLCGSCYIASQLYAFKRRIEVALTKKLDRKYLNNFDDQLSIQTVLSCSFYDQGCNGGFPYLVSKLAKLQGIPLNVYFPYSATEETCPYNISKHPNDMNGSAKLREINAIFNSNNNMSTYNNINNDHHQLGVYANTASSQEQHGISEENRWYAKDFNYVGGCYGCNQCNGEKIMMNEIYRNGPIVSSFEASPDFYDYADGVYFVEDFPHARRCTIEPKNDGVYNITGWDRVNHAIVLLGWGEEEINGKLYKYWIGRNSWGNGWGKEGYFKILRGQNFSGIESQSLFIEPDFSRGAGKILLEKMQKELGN

This assay has as its target DPAP1 (Plasmodium falciparum, UniProt Q8IIJ9). Description: primary screen, percent inhibition; read by cleavage of a fluorogenic dipeptide substrate; higher = more effect of the substance. Also on record: species or system P. falciparum D10 trophozoite lysates; single well.
For `N#Cc1cc2c(nc1SCC(=O)Nc1ccc(F)cc1)CCC2`, the “% Inhibition @ 10 uM” value was 5.83%. The result for `CC(C)C(NC(=O)/C(=C/c1ccccc1)NC(=O)c1ccc(Br)o1)C(=O)O` (stereo not shown) reads -1.07%. Next, `O=C(Nc1ccc2c(c1)OCCO2)C1CCC1`: -3.37%; `Cc1cc(C(=O)N2CCN(C)CC2)c2c(C)nn(-c3ccccc3)c2n1`: 3.75%; `CCOC(=O)c1cnc(SCC(=O)NC(C)c2ccccc2)nc1N` (stereo not shown): 2.21%. As to `Fc1cccc(CN2CCN(c3ccccc3F)CC2)c1`, the “% Inhibition @ 10 uM” value is recorded as 0.847%. Next, `O=c1oc2c(CN3CCOCC3)c(O)ccc2cc1-c1nc2ccccc2s1`: 3.8%; `CCOC(=O)c1cnc2cc(Cl)c(Oc3ccc(Cl)cc3)cc2c1O`: -4.23%. Turning to `CCOC(=O)N1CCc2c(sc3nc(SC)n(Cc4ccccc4)c(=O)c23)C1`, the “% Inhibition @ 10 uM” value is -4.12%. Next, `CCCC1=C(C(=O)OCC)C(c2ccoc2)C(C#N)=C(N)O1` (stereo not shown): -6.47%; `Cc1c(C(N)=O)sc(NC(=O)COc2ccccc2)c1C#N`: -4.65%. On to `O=C(NCc1ccccn1)c1cccc(C(=O)NCc2ccccn2)c1`, for which the “% Inhibition @ 10 uM” value turned out to be 3.84%. As for `CCCN1C(=O)c2[nH]nc(-c3ccccc3O)c2C1c1cccc(Br)c1` (stereo not shown), the “% Inhibition @ 10 uM” value is 3.62%. The result for `CCCCNC(=S)N1CCCCC1c1cccnc1` (stereo not shown) reads 4.67%; that for `COc1ccc(C(CC(=O)Nc2cc(C)ccn2)N2Cc3ccccc3C2=O)cc1OC` (stereo not shown), -5.56%. With `N#Cc1ccccc1NC(=O)c1ccccc1-c1ccccc1C(=O)Nc1ccccc1C#N`, the “% Inhibition @ 10 uM” value was -2.18%.

For the molecule `COc1ccc(C)cc1NC(=O)c1c(Cl)c(C)nn1C`, the “% Inhibition @ 10 uM” value is reported as -1.64%. Next, `CCCCSc1nc(-c2cccs2)cc(C(F)(F)F)c1C#N`: 60.7%; `CC1=C(C(=O)OC2CCCC2)C(c2cccc(Cl)c2)NC(=O)N1` (stereo not shown): 5.01%; `COc1cc2c(cc1NC(=O)c1c(OC)cccc1OC)oc1ccccc12`: -5.49%.

Regarding `CCOC(=O)N1CCC(N2CCN(c3cccc(C(F)(F)F)c3)CC2)CC1`, the “% Inhibition @ 10 uM” value was 1.38%. As to `CCOC(=O)N1CCC(/N=c2\c(O)c(O)\c2=N/CCCN(C)Cc2ccccc2)CC1`, the “% Inhibition @ 10 uM” value is -1.44%. Next, `CC1CN(C(=O)c2cccs2)CC(C)O1` (stereo not shown): 0.177%; `O=C(c1ccc(Br)o1)N1CCN(c2ccccc2F)CC1`: 5.69%. Next, `O=C(C1CCC(CNc2c(N3CCOCC3)c(=O)c2=O)CC1)N1CCCCC1` (stereo not shown): 1.22%; `CCOc1ccc2c3c(c(=O)oc2c1)CCC3`: -3.38%; `Brc1ccc(N2N=C(c3ccccn3)CC2c2ccccc2)cc1` (stereo not shown): -3.15%. Next, `CC(C)(C)c1ccc(S(=O)(=O)c2cc3ccccc3oc2=O)cc1`: -1.3%.
